Conditions in all cases: 20 mM HEPES pH 7.9, 100 mM NaCl, 1 mM DTT, 0.2 mg/mL BSA, 0.02% Triton X-100, 2% milk, 0.4 mg/mL salmon testes DNA; 1 h; temperature not stated; high values mean tight binding; double strand, one strand shown; sequences stand for … in GCCTAGCAC…GTGCTAGGTCTTGATTCGCTTGACGCTGCTG
The target of test [1] is PU.1 (IVT) (UniProt P17947). The test can be described thus: protein-binding microarray (PBM).
The target in test [2] is T1, FLI1 (endogenous, THP-1 nuclear extract) (UniProt Q01543).
T1 sequence: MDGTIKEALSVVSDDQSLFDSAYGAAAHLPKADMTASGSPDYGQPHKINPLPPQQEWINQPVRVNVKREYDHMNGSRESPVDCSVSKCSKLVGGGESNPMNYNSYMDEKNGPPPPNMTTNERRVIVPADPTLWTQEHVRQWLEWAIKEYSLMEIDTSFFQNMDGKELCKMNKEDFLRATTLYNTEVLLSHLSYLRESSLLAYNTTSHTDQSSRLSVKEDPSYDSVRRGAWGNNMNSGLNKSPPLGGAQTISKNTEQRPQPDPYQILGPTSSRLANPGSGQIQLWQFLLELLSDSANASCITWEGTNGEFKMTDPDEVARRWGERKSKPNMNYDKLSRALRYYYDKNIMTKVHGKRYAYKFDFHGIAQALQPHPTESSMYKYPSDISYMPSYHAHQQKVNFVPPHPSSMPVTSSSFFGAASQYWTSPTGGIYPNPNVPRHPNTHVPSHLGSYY
The test can be described thus: nuclear extract protein-binding microarray (nextPBM).

Test [3] deals with PU.1 (endogenous, THP-1 nuclear extract) + IRF8 (endogenous, THP-1 nuclear extract). The description is as above.

This is one part of the list. For part of these data: At the low end of the ranking, values are background and their order means little. For part of these data: Measured with an extract: partners may take part in the binding.

Turning to CTGCCAGGGAAGTGAAAGCG, the binding signal in test [1] turned out to be 1.19 z-score; in test [2] it was 1.22 z-score; in test [3], 3.54 z-score.
TTTTTAGGGAAGTGAAACTA: the binding signal in test [1] was found to be 6.23 z-score; in test [2], 3.46 z-score; in test [3], 80.2 z-score.
On the same counts, the results for TTTTTGAGGAACTGAAACTT are 4.94 z-score, 2.38 z-score and 44.4 z-score.
On the same counts, the results for GTTTTGAGGAAGTGAAACTC are 6.52 z-score, 3.42 z-score and 79 z-score.
On the same counts, the results for AGAAAACGGAAGTGAAACTC are 6.77 z-score, 5.44 z-score and 69.4 z-score.
CTGCCAGGGAAGCGAAAGCA: the results for the binding signal in test [1], in test [2] and in test [3] were -0.158 z-score, 0.621 z-score and 7.49 z-score, respectively.
On the same counts, the results for AAAAAATGGAAATGAAAGTA are 1.03 z-score, 0.86 z-score and 9.33 z-score.
On the same counts, the results for TGAGAGGAGCAGTGAAACCT are -0.428 z-score, -0.498 z-score and 5.87 z-score.
On the same counts, the results for CTGCCAGGGAAGTGGAAGCA are 2.09 z-score, 1.27 z-score and 0.377 z-score.
Regarding GAAAAGAGGAACAGAAACTG, the values for the binding signal in test [1], in test [2] and in test [3] were 4.98 z-score, 2.44 z-score and 40.3 z-score, respectively.
On the same counts, the results for TAAAGGAGGAACCGAAACCA are 2.42 z-score, 2.24 z-score and 79.6 z-score.
On the same counts, the results for CTGGGAGGGAACTGAAACTC are 0.859 z-score, 0.442 z-score and 11.5 z-score.
On the same counts, the results for TGTGAGGAGAAGTGAAACCT are 0.98 z-score, 0.527 z-score and 22.6 z-score.
As for TGAGAGGAGAGGTGAAACCT, the values for the binding signal in test [1], in test [2] and in test [3] were -0.481 z-score, -0.712 z-score and 3.73 z-score, respectively.
On the same counts, the results for CAAAAGAGGAAGCGAAACTG are 6.51 z-score, 4.05 z-score and 79.3 z-score.
Regarding TGAGAGGAGGAGTGAAACCT, the binding signal in test [1] was -0.199 z-score; in test [2], 0.09 z-score; in test [3], 8.74 z-score.
On to TAAAGGTGGAACTGAAACCA, for which the figures for the binding signal in test [1], in test [2] and in test [3] were 1.02 z-score, 0.607 z-score and 20.2 z-score, respectively.
Regarding GCCTAAAGGAAGTGAAAGTG, the binding signal in test [1] came to 1.69 z-score; in test [2], 2.56 z-score; in test [3], 19.7 z-score.
On the same counts, the results for ATCATCAGGAACTGAAACTG are 1.18 z-score, 0.647 z-score and 16.5 z-score.
On the same counts, the results for AGAAATGGGAAGTGAAACTC are 5.06 z-score, 4.03 z-score and 54.8 z-score.
On the same counts, the results for TAAAGGAGGAACTGAACCCA are 3.5 z-score, 0.973 z-score and 0.588 z-score.
With TGAAAGAGGAACTGAAAATG, the binding signal in test [1] is 5.75 z-score; in test [2], 3.03 z-score; in test [3], 4.79 z-score.
For the sequence GATAAGAGGAACTGAACGCT, the binding signal in test [1] is 4.26 z-score; in test [2], 1.49 z-score; in test [3], 0.107 z-score.
As to GAAATGAGGAACAGAAACTG, the binding signal in test [1] is 4.35 z-score; in test [2], 1.83 z-score; in test [3], 31.2 z-score.
On the same counts, the results for TGACACAGGAAGTGAAACCA are 2.45 z-score, 4.96 z-score and 51.4 z-score.
Take AGAAAGAGGAAGAGAAACTA: the binding signal came out at 4.62 z-score in test [1], 2.48 z-score in test [2] and 20.3 z-score in test [3].
Regarding TTGAGCAAGAAGTGAAAGTA, the binding signal is 0.824 z-score in test [1], -0.213 z-score in test [2] and 20.6 z-score in test [3].
On the same counts, the results for GAAATTAGGAAGTGAAAGCA are 4.06 z-score, 2.06 z-score and 13.7 z-score.
Turning to TGAAACAGGAAGTGAAGCCA, the binding signal was 6.24 z-score in test [1], 5.5 z-score in test [2] and -0.579 z-score in test [3].
As to GATAAAAGGAACTGAAAGCT, the binding signal was 2.21 z-score in test [1], 0.861 z-score in test [2] and 1.44 z-score in test [3].
On the same counts, the results for CTGGCAGTGAACTGAAACTC are 0.196 z-score, -0.255 z-score and 7.59 z-score.
On the same counts, the results for TGAAACAGGATGTGAAACCA are 1.33 z-score, 3.89 z-score and 36.1 z-score.
Take GAAAAGGGGAAGAGAAACTT: the binding signal in test [1] is 4.8 z-score; in test [2], 1.68 z-score; in test [3], 6.55 z-score.
On the same counts, the results for GGTGTGGGGAAGTGAAACCT are 3.54 z-score, 2.17 z-score and 36.8 z-score.
On the same counts, the results for GTAAAACAGAAGTGAAACTG are 1.74 z-score, 1.03 z-score and 55.3 z-score.
For the sequence CTGGAGAGGAAATGAAACTA, the binding signal in test [1] amounted to 1.5 z-score; in test [2], 2.87 z-score; in test [3], 35.9 z-score.
On the same counts, the results for TGCGAGGAGAAGTGAAACCT are 1.12 z-score, 0.154 z-score and 23.5 z-score.
On the same counts, the results for CTGCCAGGGAAGTGAAGGCA are 0.913 z-score, 0.568 z-score and -0.0451 z-score.
As for AGAGAGGAGAAGTGAAACCT, the results for the binding signal in test [1], in test [2] and in test [3] were 1.5 z-score, 0.611 z-score and 26.8 z-score, respectively.
On the same counts, the results for ATCTTAGGGAACTGAAACCC are 1.75 z-score, 0.741 z-score and 8.73 z-score.
CTGACAGGGAAGTGAAAGCA: the binding signal in test [1] was determined as 2.58 z-score; in test [2] it was 1.3 z-score; in test [3], 7.74 z-score.
On the same counts, the results for CTGCCAGGGGAGTGAAAGCA are -0.635 z-score, -0.652 z-score and 1.33 z-score.
Consider AAAAAGAGGAAGAGAAACTT, for which the binding signal in test [1] was 6.04 z-score; in test [2], 2.83 z-score; in test [3], 14.9 z-score.
On the same counts, the results for GATAAGAGGAACTAAAAGCT are 5.27 z-score, 1.43 z-score and -0.418 z-score.
On the same counts, the results for TAAAGGAGAAACTGAAACCA are 0.576 z-score, -0.121 z-score and 36.2 z-score.
As to AAATACAGGAAGTGAAACTT, the binding signal in test [1] is 6.55 z-score; in test [2], 5.2 z-score; in test [3] it was 60.2 z-score.
On the same counts, the results for GATAAGGGGAACTGAAAGCT are 3.27 z-score, 1.16 z-score and 4.17 z-score.
Turning to CCCAGGAGGAACTGAAACTG, the figures for the binding signal in test [1], in test [2] and in test [3] were 2.73 z-score, 1.62 z-score and 28.2 z-score, respectively.
On the same counts, the results for TGGAAGAAGAAGTGAAACAA are 1.56 z-score, 0.777 z-score and 4.74 z-score.
On the same counts, the results for TCATTAGGGAAGTGAAAGTA are 3.86 z-score, 2.24 z-score and 42.6 z-score.
As for TAAACGAGGAACTGAAACCA, the binding signal was found to be 1.99 z-score in test [1], 1.32 z-score in test [2] and 25.8 z-score in test [3].
As to AAACAAAGGAAATGAAAGTA, the results for the binding signal in test [1], in test [2] and in test [3] were 0.659 z-score, 2.26 z-score and 7.4 z-score, respectively.
As to AAAAAAAGGAAATGAAATTA, the binding signal was 3.65 z-score in test [1], 2.29 z-score in test [2] and 0.606 z-score in test [3].
On the same counts, the results for TGGCAGAGGAAGTGTAACTA are 2.88 z-score, 2.25 z-score and 0.875 z-score.
On the same counts, the results for AAAAAGAGGAAGGGAAACTG are 5.59 z-score, 2.77 z-score and 11.5 z-score.
With TAAAGGAGGAACTGAAATCA, the binding signal in test [1] was found to be 3.68 z-score; in test [2], 1.25 z-score; in test [3] it was 1.35 z-score.
For ACTGGGAGGAAGTGAAACTG, the figures for the binding signal in test [1], in test [2] and in test [3] were 3.52 z-score, 3.53 z-score and 55.1 z-score, respectively.
On the same counts, the results for GATAAGAGGAGCTGAAAGCT are 0.24 z-score, -0.348 z-score and -0.214 z-score.
As for GGAAACAGGAAGTGAAACCA, the values for the binding signal in test [1], in test [2] and in test [3] were 7.19 z-score, 5.62 z-score and 75 z-score, respectively.
On the same counts, the results for AAAAAAAGGAAATGAAAGAA are 3.71 z-score, 2.38 z-score and 0.458 z-score.

The record behind these values is article PMC6451091.
